According to the supplement of paper PMC4967469:
IC50 is the fitted dose that halves viability relative to control wells, and lower means more sensitive; a fit beyond the top or the lowest dose is shown as a bound at that dose. AUC sums up the same curve from the lowest dose to the 256-fold higher top dose; values near 1 show little effect. An inferred top dose is not printed in the source and was worked back from the curve model. For part of these data: Drugs with an entry number were screened twice under separate entries, and the two screens often disagree.

How the values were obtained:
Assay in all cases: Viability of human cancer cell lines after 72 h of drug (GDSC screen)
Olaparib = compound: O=C(c1cc(Cc2n[nH]c(=O)c3ccccc23)ccc1F)N1CCN(C(=O)C2CC2)CC1 [Olaparib]
Description: (§1)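 Human cancer cell lines in 384-well plates, medium with 10% serum, drug for 72 h over a 256-fold dose range (nine 2-fold or five 4-fold steps up to the top dose). Adherent lines were fixed and stained with the nucleic acid dye Syto60, suspension lines read with resazurin; signal relative to control wells, capped at 0 and 100%. One two-parameter sigmoid per drug and line, fitted in a mixed model over all curves with the slope shared within a line.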

HG-5-113-01 = compound: CNC(=O)c1ccc(Nc2cc(Nc3ccccc3S(=O)(=O)C(C)C)c3cc[nH]c3n2)nc1 [HG-5-113-01]; details: top dose 10 µM; top dose inferred
Description: as §1

Wee1 inhibitor 681640 = compound: O=C1NC(=O)c2c1c(-c1ccccc1Cl)cc1[nH]c3ccc(O)cc3c21 [Wee1 inhibitor 681640]; details: top dose 2 µM; top dose inferred
Description: as §1

BIRB 0796 = compound: Cc1ccc(-n2nc(C(C)(C)C)cc2NC(=O)Nc2ccc(OCCN3CCOCC3)c3ccccc23)cc1 [BIRB 0796]; details: top dose 10 µM; top dose inferred
Description: as §1

SB-525334 = compound: Cc1cccc(-c2[nH]c(C(C)(C)C)nc2-c2ccc3nccnc3c2)n1 [SB-525334]; details: top dose 20 µM; top dose inferred
Description: as §1

BMS-536924 = compound: Cc1cc(N2CCOCC2)cc2[nH]c(-c3c(NC[C@@H](O)c4cccc(Cl)c4)cc[nH]c3=O)nc12 [BMS-536924]; details: top dose 4 µM; screen: GDSC drug entry 1091; top dose inferred
Description: as §1

VX-702 = compound: NC(=O)c1ccc(N(C(N)=O)c2c(F)cccc2F)nc1-c1ccc(F)cc1F [VX-702]; details: top dose 2 µM; top dose inferred
Description: as §1

Shikonin = compound: CC(C)=CC[C@@H](O)C1=CC(=O)c2c(O)ccc(O)c2C1=O [Shikonin]; details: top dose 16 µM; top dose inferred
Description: as §1

[1] = top dose 5 µM, screen: GDSC drug entry 1017, top dose inferred
[2] = top dose 10 µM, screen: GDSC drug entry 1495

Cell Line | AUC (Olaparib; [1]) | IC50 (Olaparib; [1]) [µM] | AUC (Olaparib; [2]) | IC50 (Olaparib; [2]) [µM] | AUC (HG-5-113-01) | IC50 (HG-5-113-01) [µM] | AUC (Wee1 inhibitor 681640) | IC50 (Wee1 inhibitor 681640) [µM] | AUC (BIRB 0796) | IC50 (BIRB 0796) [µM] | AUC (SB-525334) | IC50 (SB-525334) [µM] | AUC (BMS-536924) | IC50 (BMS-536924) [µM] | AUC (VX-702) | IC50 (VX-702) [µM] | AUC (Shikonin) | IC50 (Shikonin) [µM]
KYAE-1 (oesophagus, suspension) | 0.972 | > 5 | 0.966 | > 10 | 0.811 | 6.03 | 0.955 | > 2 | 0.976 | > 10 | 0.943 | > 20 | 0.966 | > 4 | 0.94 | > 2 | – | –
MFE-319 (endometrium, adherent) | – | – | 0.972 | > 10 | 0.886 | > 10 | 0.898 | > 2 | 0.974 | > 10 | 0.984 | > 20 | 0.983 | > 4 | – | – | 0.309 | 0.297
MKN7 (stomach, adherent) | 0.982 | > 5 | 0.978 | > 10 | 0.924 | > 10 | 0.966 | > 2 | 0.979 | > 10 | – | – | 0.982 | > 4 | 0.981 | > 2 | – | –
NCC010 (kidney, adherent) | 0.986 | > 5 | 0.977 | > 10 | 0.773 | 4.17 | 0.977 | > 2 | 0.896 | > 10 | – | – | 0.903 | > 4 | 0.986 | > 2 | – | –
NCI-H508 (large intestine, semi-adherent) | 0.934 | > 5 | 0.972 | > 10 | 0.72 | 4.13 | 0.972 | > 2 | 0.96 | > 10 | – | – | 0.881 | > 4 | 0.837 | > 2 | – | –
NCI-H929 (myeloma, suspension) | – | – | – | – | 0.642 | 1.45 | 0.91 | > 2 | 0.887 | 8.31 | – | – | 0.57 | 0.376 | 0.883 | 1.59 | – | –
NCI-H2066 (small cell lung carcinoma, adherent) | – | – | 0.97 | > 10 | 0.938 | > 10 | 0.98 | > 2 | 0.943 | > 10 | – | – | 0.904 | > 4 | – | – | – | –
NCI-N87 (stomach, adherent) | 0.979 | > 5 | 0.959 | > 10 | 0.77 | 5.61 | 0.902 | > 2 | 0.942 | > 10 | – | – | 0.935 | > 4 | 0.979 | > 2 | – | –
NY (osteosarcoma, adherent) | 0.984 | > 5 | 0.951 | > 10 | 0.862 | 8.39 | 0.814 | 1.07 | – | – | 0.986 | > 20 | 0.957 | > 4 | 0.984 | > 2 | 0.546 | 1.33
OC-314 (ovary, adherent) | 0.991 | > 5 | 0.908 | > 10 | 0.731 | 2.52 | 0.969 | > 2 | 0.986 | > 10 | 0.967 | > 20 | 0.977 | > 4 | 0.991 | > 2 | – | –
OCI-LY7 (B-cell lymphoma, suspension) | 0.997 | > 5 | – | – | 0.621 | 1.22 | 0.902 | 1.28 | 0.978 | > 10 | – | – | 0.945 | 3.67 | 0.973 | > 2 | – | –
OVCAR-3 (ovary, adherent) | – | – | – | – | 0.722 | 2.86 | 0.849 | 1.75 | 0.982 | > 10 | 0.986 | > 20 | 0.953 | > 4 | – | – | 0.377 | 0.442
OVKATE (ovary, adherent) | 0.979 | > 5 | 0.977 | > 10 | 0.942 | > 10 | 0.979 | > 2 | 0.967 | > 10 | 0.884 | > 20 | 0.951 | > 4 | 0.979 | > 2 | – | –
RPMI-7951 (melanoma, adherent) | 0.984 | > 5 | – | – | 0.801 | 4.71 | 0.89 | > 2 | 0.978 | > 10 | 0.959 | > 20 | 0.957 | > 4 | – | – | 0.218 | 0.154
SK-LU-1 (lung adenocarcinoma, adherent) | – | – | 0.887 | > 10 | 0.693 | 2.55 | 0.741 | 0.755 | 0.957 | > 10 | 0.979 | > 20 | 0.873 | > 4 | – | – | 0.46 | –
SK-MEL-28 (melanoma, adherent) | – | – | 0.979 | > 10 | 0.855 | 7.72 | 0.929 | > 2 | 0.986 | > 10 | 0.952 | > 20 | 0.902 | > 4 | – | – | 0.863 | 13.4
SU-DHL-10 (B-cell lymphoma, suspension) | – | – | 0.997 | > 10 | 0.782 | 3.01 | 0.998 | > 2 | 0.995 | > 10 | 0.983 | > 20 | 0.995 | > 4 | – | – | 0.086 | 0.0916
VMRC-LCD (lung adenocarcinoma, adherent) | 0.993 | > 5 | 0.975 | > 10 | 0.668 | 1.67 | 0.987 | > 2 | 0.989 | > 10 | – | – | 0.971 | > 4 | 0.993 | > 2 | – | –
ZR-75-30 (breast, adherent) | 0.983 | > 5 | 0.981 | > 10 | 0.904 | > 10 | 0.983 | > 2 | 0.939 | > 10 | – | – | 0.937 | > 4 | 0.983 | > 2 | – | –
